This passage reports IFI results from ChEMBL document CHEMBL1157539, “Thousands of chemical starting points for antimalarial lead identification” (Nature, 2010).

The full ranking holds about 13,000 compounds; the median of “IFI” is about 4, and the highest 2% start at about 17. The list shows a part of the results.

The test is described as follows: GSK_TCMDC: Inhibition Frequency Index (IFI). The number of non-kinase HTS assays where a compound showed > 50 % inhibition, expressed as a percentage of the number of such assays in which the compound was tested (-0 is zero). Format: functional.
Take `CC(C)CNCc1ccc(-c2ccc(CN(C(=O)NCCc3ccccc3)C3CCN(Cc4ccccc4)CC3)cc2)cc1`: the IFI was determined as 6.52%.
`Cc1cccc2nc(-c3ccc(-c4ccc(CNCc5cccc(N)c5)cc4)s3)[nH]c12` registered an IFI of 10.5%.
`O=C(Nc1cc(C(F)(F)F)ccc1Cl)c1ccc(Cn2cc(Br)cn2)cc1` returned an IFI of 7.55%.
Molecule `CCOc1cc(Cc2cnc(N)nc2N)cc(Br)c1OC` yielded an IFI of 0.74%.
The same measure for `CCCc1ccc(C(=O)N2C(c3nccs3)C(C(N)=O)CC2(CC(C)C)C(=O)O)cc1` (stereo not drawn): -0%; for `COc1ccc(S(=O)(=O)Nc2cc(Br)cc3c2OCCC3)cc1N1CCN(C(=O)C(Cl)(Cl)Cl)CC1`: 0%; for `O=C(/C=C/c1ccc(Cl)c(Cl)c1)NCCCCCN1CCC(NC(=O)c2cc(Cl)ccc2F)CC1`: 6.9%.
For the molecule `N=C1N=C(N)NCN1OCc1ccc(Cl)c(Cl)c1`, the IFI turned out to be 0.72%.
Molecule `N#Cc1ccc(CN2CCC(NC(=O)c3ccc(-c4nnc(-c5cccc6ccccc56)o4)cc3)CC2)cc1` gave an IFI of 7.8%.
Molecule `Cc1c(Cc2ccccc2Cl)cnc2nc(N)nc(N)c12` registered an IFI of 2.94%.
In turn, `O=C(/C=C/c1ccc(Cl)c(Cl)c1)NCCCCCN1CCC(NC(=O)NC2CCCCCC2)CC1` returned an IFI of 8.55%.
With `Oc1ccc(CCCc2cc(Oc3c(I)cc(CCc4ncc[nH]4)cc3I)ccc2O)cc1`, the IFI is 10.3%.
For `O=C(NCc1cccc(C(F)(F)F)c1)C(c1cc2ccccc2o1)N1CCN(C(c2ccccc2)c2ccccc2)CC1` (stereo not drawn), the IFI came out at 0.72%.
`Oc1ccc(CN2CCC(NCc3cccc(C(F)(F)F)c3)CC2)cc1` displayed an IFI of 1.34%.
In turn, `Cc1ccccc1Oc1nc2ccccc2nc1SCC(=O)NC(C)C` returned an IFI of 6.82%.
`Cc1ccc(-c2nnc(-c3ccc(C(=O)NC4CCN(Cc5ccc(C#N)cc5)CC4)cc3)o2)cc1Br` had an IFI of 7.75%.
On to `CCOc1cc(C(=O)Nc2ccccc2N2CCN(S(C)(=O)=O)CC2)cc(OCC)c1OCC`, for which the IFI was -0%.
As for `COc1ccc(-c2ccc(CN(C)C3CCC(NC(=O)c4cc5ccccc5[nH]4)CC3)cc2)cn1` (stereo not drawn), the figure is 4.35%.
On to `COc1ccccc1-c1[nH]c2ccccc2c1CN1CCC(c2c(C)cccc2C)CC1`, for which the IFI is 6.67%.
Molecule `Oc1cc(Nc2ccnc3cc(-c4cccc(CN5CCCCC5)c4)ccc23)c(F)cc1Cl` displayed an IFI of 8.96%.
Take `COc1ccc2nc3cc(Cl)ccc3c(NCCCCN)c2c1`: the IFI was 4.38%.
The same measure for `COc1cc2ccccc2c(OC)c1CCNCCCCNCCc1c(OC)cc2ccccc2c1OC`: 14.5%; for `COc1cc(OC)nc(C(Sc2ccc(NC(=O)c3cccs3)cc2)c2ccccc2)n1` (stereo not drawn): 1.43%; for `O=C(Cc1ccsc1)NCC(c1ccccc1Cl)c1c[nH]c2ccccc12` (stereo not drawn): 2.78%.
As for `O=C(Cn1c(SCc2cccc(F)c2F)cc(=O)c2ccccc21)N(Cc1ccc(-c2ccc(C(F)(F)F)cc2)cc1)C1CCN(CCO)CC1`, the IFI worked out at 10.1%.
The same measure for `CCN(CC)/C(=N/C(=N)Nc1ccc(C)cc1)NCCCCCCN/C(=N\C(=N)Nc1ccc(C)cc1)N(CC)CC`: 5.22%; for `CC(C)Cc1ccc(N2CCN(CCCCNC(=O)c3ccc(NC(=O)c4cc(C(F)(F)F)cc(C(F)(F)F)c4)cc3)CC2)cc1`: 0%.
In turn, `NC(=O)c1ccccc1Nc1nc(Nc2cc[nH]n2)ncc1Cl` had an IFI of -0%.
`O=C(/C=C/c1ccc(C(F)(F)F)cc1)NCCCCCN1CCCN(C(=O)Nc2ccc(Cl)cc2)CC1`: the IFI worked out at 9%.
`CCCCNCc1ccc(OCc2cccc(COc3ccc(CNCCCC)cc3I)c2)c(I)c1` registered an IFI of 7.97%.
Take `CC(C)(C)c1ccc(CN2CCC(CNC(=O)c3cc(-c4cccc(F)c4)cs3)C2)cc1` (stereo not drawn): the IFI was 14.6%.
`COc1ccccc1N1CCN(CCCCNC(=O)c2ccc(NC(=O)c3ccc(C(F)(F)F)cc3)cc2)CC1` displayed an IFI of 3.1%.
Regarding `CCCCN(CCCC)Cc1cc(Nc2ccnc3cc(Cl)ccc23)ccc1O`, the IFI was found to be 1.82%.
Take `Brc1ccc(Nc2nc(NCC3CCCO3)c3ccccc3n2)cc1` (stereo not drawn): the IFI turned out to be 7.04%.
In the case of `Cc1ccc2[nH]c(C3CCCNC3)c(-c3ccncc3)c2c1` (stereo not drawn), the IFI amounted to 4.76%.
For `CN1CCN(CC(=O)Nc2ccc(-c3ccc(-c4nc5cc(C(F)(F)F)ccc5[nH]4)cc3)cc2)CC1`, the IFI amounted to 5.45%.
Molecule `COC(=O)c1ccc(CCC(C)NCC(O)c2cccc(C(F)(F)F)c2)cc1` (stereo not drawn) came in with an IFI of 6.02%.
Consider `CCCCCCCCS(=O)(=O)NCCCC1CCN(CCCCCNC(=O)C=Cc2ccc(Cl)c(Cl)c2)CC1`, for which the IFI worked out at 8.63%.
In the case of `CCOc1cccc(C(=O)Nc2ccc(-c3nc4ccccc4[nH]3)cc2)c1`, the IFI was 2.74%.
As for `COc1ccc(CCNc2nc(NCCc3cnc[nH]3)nc(NCc3cccc4ccccc34)n2)cc1OC`, the figure is 6.72%; as for `O=C(Nc1cccc(CN2CCN(Cc3ccc(O)cc3)CC2)c1)c1cc2ccccc2s1`, 2.97%.
The same measure for `O=C(Nc1ccc(Cn2nc(Cl)c(N3CCCNCC3)cc2=O)cc1)Nc1ccc(-c2ccccc2)cc1`: 8.28%.
For `O=C(Nc1ccc(-c2nc3cc4ccccc4cc3[nH]2)cc1)c1cccc(Br)c1`, the IFI was 1.36%.
Turning to `CC(=O)Nc1ccc(Nc2ncc([N+](=O)[O-])c(Nc3ccccc3C(N)=O)n2)cc1`, the IFI was 2.92%.
Molecule `N=C(Nc1ccccc1)Nc1cccc(Cc2ccc([N+](=O)[O-])cc2)n1` returned an IFI of 19.9%.
The molecule `O=C(NCc1ccccc1)Nc1ccc(-c2ccc(-c3nc4cc(C(F)(F)F)ccc4[nH]3)cc2)cc1` came in with an IFI of 1.01%.
As to `O=C(CC(=O)Nc1cc(Cl)cc(Cl)c1)Nc1cc(Cl)cc(Cl)c1`, the IFI turned out to be 0%.
Turning to `CCC1CN2CCc3c([nH]c4ccccc34)C2CC1CC1NCCc2cc(OC)c(OC)cc21` (stereo not drawn), the IFI amounted to 7.81%.
Molecule `Cn1ccnc1CNC(=O)c1ccc(-c2ccc(-c3nc4cc(C(F)(F)F)ccc4[nH]3)s2)cc1` displayed an IFI of 4.59%.
With `Clc1ccc(-c2cc(-c3csc(NCCN4CCCCC4)n3)on2)cc1`, the IFI worked out at 13.3%.
As for `FC(F)(F)COc1ccc(CNCCCCCCNCc2ccc(OCC(F)(F)F)c3ccccc23)c2ccccc12`, the figure is 21%; as for `COc1ccc2nccc([C@@H](O)CN3CCC(NCCOc4ccncc4)CC3)c2c1`, 0.75%; as for `CCN(CC)C(=O)C1CCCN(C(=O)Nc2cc(C(F)(F)F)cc(C(F)(F)F)c2)C1` (stereo not drawn), 6.82%.
The molecule `CN(C)CCCOc1cc(NC(=O)Nc2ccc(-c3ccncc3)c3ccccc23)ccc1I` yielded an IFI of 9.77%.
As for `CCN1CCN(c2ccc(Nc3ccnc4ccc(Br)cc34)cc2)CC1`, the figure is 4.32%.
As to `O=C(NC1CC1)c1cnc(N2CCC(c3ccccc3)CC2)c(Cl)c1`, the IFI turned out to be 8.33%.
`CC(=O)Nc1ccc(CN(C)C2CCN(c3cc(NC(=O)c4cccc(C)c4)ccn3)CC2)cc1` displayed an IFI of 2.78%.
Consider `CC1(C)N=C(N)N=C(N)N1c1ccc(Oc2ccccc2)cc1`, for which the IFI turned out to be 1.47%.
